Read counts are not given, so values of variants with three or more changes are uncertain.

In the RNAGym collection of RNA variant scans (doi:10.7554/elife.90254) one finds self-cleavage data, which are given here for 167 variants.

First the molecules themselves.
B1: LINE1-mini (parent)
chain: GGCAGAGCUCAACACAGCGUGGCAAAGUGGCUGUGGCUAGACUGCC

The variants in this data set derive from B1. The experiment in a line: self-cleavage, relative activity (ratio to wild type); higher = more cleavage; in vitro, sequencing; the parent is a self-cleaving ribozyme.
Take C8G C15U G21U: the self-cleavage came to 0.05.

Turning to C8U C10A C13A C15A G29U U38G, the self-cleavage came to 0.03.

Turning to C8U C10A C15U A26U G29C G30A A41C G44U, the self-cleavage was 0.02.

As for C8U A11U G22A, the self-cleavage amounted to 0.01.

For C8U A12U G35A G36U A39U, the self-cleavage is 0.1.

For C8G U9A U34G, the self-cleavage turned out to be 0.21.

Regarding C8U A11G C46A, the self-cleavage turned out to be 0.02.

As to C8G C15U U32G G36A C42A, the self-cleavage was found to be 0.08.

For the variant C8U A11C G35U, the self-cleavage was found to be 0.

C8U A11U C18G: the self-cleavage came to 0.04.

Regarding C8G C15G G21C, the self-cleavage is 0.02.

Take C8G U9C G21U A24C A39U: the self-cleavage worked out at 0.01.

Turning to C8G G17A G27A G40U, the self-cleavage came to 0.03.

Turning to C8U A11C C23A G29A G36A, the self-cleavage worked out at 0.01.

Take C8G C15A G29U G30A: the self-cleavage amounted to 0.2.

For C8U A14G A26C C42A, the self-cleavage amounted to 0.07.

As for C8G C10U C18A C31U, the self-cleavage stood at 0.

As to C8U A39U G44A, the self-cleavage is 0.04.

For C8U A16G G29U A39C, the self-cleavage amounted to 0.04.

In the case of C8G C10U C18A, the self-cleavage turned out to be 0.04.

With C8U A14U G30U U32G, the self-cleavage came out at 0.14.

For C8U C10A A14U A16G A41G, the self-cleavage was found to be 0.02.

C8U A11U A25G C31A: the self-cleavage was determined as 0.03.

As for C8G C13G C46G, the self-cleavage was found to be 0.01.

C8G G27C G36C C37A: the self-cleavage amounted to 0.18.

On to C8U A11C A16G G35U, for which the self-cleavage worked out at 0.

As to C8G C15A U28C, the self-cleavage is 0.04.

C8G G21C C23U C46U: the self-cleavage was found to be 0.02.

With C8G U20C C42A, the self-cleavage was found to be 0.07.

Turning to C8U A16U G33A, the self-cleavage worked out at 0.05.

Take C8G G29U C37A: the self-cleavage came out at 0.04.

As for C8G C18G G19U, the self-cleavage turned out to be 0.03.

In the case of C8U C10U A16G U28G C45G, the self-cleavage is 0.

Consider C8G G35U C45G, for which the self-cleavage was determined as 0.03.

With C8U C10A G29A U43C, the self-cleavage stood at 0.01.

C8G G17A G36C: the self-cleavage was determined as 0.03.

C8U A25U A26G U43A: the self-cleavage came to 0.16.

For the variant C8G C18U C23A U32A, the self-cleavage amounted to 0.13.

Take C8G U9G A14U G19A G22C A25U G29U U34A C45U: the self-cleavage was found to be 0.

As for C8U A12C U34A G36U G40A, the self-cleavage is 0.01.

On to C8G U9A G27A U32C, for which the self-cleavage worked out at 0.07.

Regarding C8U C10U C13G A26U C31A C42G U43C C46G, the self-cleavage came out at 0.04.

C8G C13U A14C G44A: the self-cleavage stood at 0.1.

As to C8G C15A A25C A39G C46G, the self-cleavage amounted to 0.05.

Consider C8U A14C A25U, for which the self-cleavage was found to be 0.22.

For the variant C8G C13U C45U, the self-cleavage worked out at 0.01.

Regarding C8U A25U G40A A41C, the self-cleavage was determined as 0.02.

In the case of C8U A16G A26U G30U, the self-cleavage amounted to 0.07.

On to C8U A39U C45U, for which the self-cleavage was determined as 0.05.

Take C8G C18U G21C A24U U28G U38A: the self-cleavage stood at 0.

As for C8U A12U A26C, the self-cleavage stood at 0.18.

As for C8G C13A U28C, the self-cleavage was determined as 0.14.

With C8G C18A G30C C31G U43A, the self-cleavage is 0.02.

With C8G C15U A16C, the self-cleavage turned out to be 0.04.

As for C8G G27A G30U, the self-cleavage was determined as 0.06.

Regarding C8U A24U G35C, the self-cleavage is 0.12.

On to C8G G21U U43C, for which the self-cleavage was 0.01.

With C8G U9G G29U, the self-cleavage came out at 0.03.

C8G C18G G33U: the self-cleavage worked out at 0.01.

As to C8G U20C G29A, the self-cleavage is 0.07.

For C8U A25U G27A C31A C37G, the self-cleavage was found to be 0.48.

Turning to C8G C18A G36C, the self-cleavage was found to be 0.02.

For C8G C13G C42U, the self-cleavage came to 0.

Consider C8U A11C C13A C18A G21A G40U, for which the self-cleavage was found to be 0.02.

Take C8G C15G C45A C46G: the self-cleavage came to 0.04.

For the variant C8U A12U G17U C37A U43C, the self-cleavage is 0.02.

On to C8G C18A G21A U28G A39G U43C, for which the self-cleavage was 0.01.

Regarding C8U A16G U34G, the self-cleavage amounted to 0.01.

With C8G C13A G30U G33C, the self-cleavage worked out at 0.05.

Take C8U C10A A14U C45A: the self-cleavage is 0.04.

On to C8G U34A U43C, for which the self-cleavage was determined as 0.02.

Consider C8G C15A G19A C23A G27C, for which the self-cleavage came to 0.03.

As for C8G U9C C37U G40U, the self-cleavage amounted to 0.01.

In the case of C8G G19U G22U, the self-cleavage stood at 0.02.

As to C8G C15G G36U, the self-cleavage was 0.06.

Turning to C8G G29U A39G, the self-cleavage is 0.04.

Turning to C8G U28A G33C C46U, the self-cleavage stood at 0.08.

C8G G22A A41U: the self-cleavage was 0.19.

As for C8G G19U C31A, the self-cleavage is 0.03.

C8G G22A A25C: the self-cleavage came out at 0.02.

With C8G U20C G40A, the self-cleavage stood at 0.05.

For the variant C8U A11U A12G G29C C37U, the self-cleavage is 0.01.

For the variant C8G C23A U43G, the self-cleavage was found to be 0.02.

Regarding C8G G29U G30A, the self-cleavage is 0.25.

For the variant C8U C10U A14C G17U G19A U28A, the self-cleavage came out at 0.09.

With C8G C15U A16G G35U C37U G44A, the self-cleavage is 0.

On to C8U A14C A26G G27U G35U C46G, for which the self-cleavage came to 0.02.

For the variant C8G C13U A14C U20A A24G A26U G35C, the self-cleavage was 0.09.

On to C8G C15G G19C G21U, for which the self-cleavage turned out to be 0.03.

With C8U A11C C18U G19C, the self-cleavage is 0.

On to C8U A16C U28A C31U, for which the self-cleavage is 0.06.

As for C8G U9G G27A, the self-cleavage amounted to 0.12.

Turning to C8U A12G A14G U20C C37U, the self-cleavage came to 0.05.

C8G C18A C31U: the self-cleavage stood at 0.01.

In the case of C8G G35C C45G, the self-cleavage was 0.06.

As to C8U A11U A25U G30U, the self-cleavage is 0.01.

Turning to C8U C10G G30U, the self-cleavage was 0.02.

Consider C8G U28C C46U, for which the self-cleavage came to 0.14.

Take C8U A14G U20A U28G U34A A41U: the self-cleavage was found to be 0.08.

On to C8U A14U G21U C42A, for which the self-cleavage was determined as 0.12.

For C8U A16U U20C U34C C42U, the self-cleavage was 0.12.

As to C8G C13A C15U G27C U34A C46U, the self-cleavage is 0.11.

Regarding C8G C18U G19U G29U, the self-cleavage is 0.02.

Take C8U C10A G27A U34A: the self-cleavage came to 0.03.

For C8G U9C U20C G21C U38G G44A, the self-cleavage worked out at 0.

With C8U A16G G21A G22U U32G U38G, the self-cleavage was 0.02.

Take C8G C10U A11C C18A C23U G36U: the self-cleavage was determined as 0.04.

Turning to C8G C31U A41C G44U, the self-cleavage was determined as 0.08.

Regarding C8U C10G G33A, the self-cleavage was 0.02.

For C8G U9G A25G, the self-cleavage was found to be 0.01.

In the case of C8G C15U U20C A26U C46U, the self-cleavage is 0.09.

With C8U A12U G36U, the self-cleavage was found to be 0.35.

For the variant C8U A12G U20G, the self-cleavage was found to be 0.08.

For C8G U9A C23A G40U, the self-cleavage was determined as 0.09.

As to C8U A24C G29U, the self-cleavage worked out at 0.07.

Consider C8U A24C G29A, for which the self-cleavage amounted to 0.15.

As to C8G C42A C46A, the self-cleavage amounted to 0.22.

As to C8G G27U G30A, the self-cleavage worked out at 0.12.

On to C8G G22U G33C, for which the self-cleavage was determined as 0.01.

C8G C10U G17C: the self-cleavage came out at 0.02.

For the variant C8G C15U G33A, the self-cleavage came out at 0.26.

C8U A11U A24U: the self-cleavage worked out at 0.06.

Regarding C8G C15A A26G C46A, the self-cleavage came out at 0.01.

Consider C8G G17C G44C, for which the self-cleavage worked out at 0.02.

Consider C8G C23U C45U C46A, for which the self-cleavage amounted to 0.03.

As for C8G C37A G44C, the self-cleavage amounted to 0.04.

With C8U A11U A24C A41G, the self-cleavage was 0.01.

On to C8G G17A G21U, for which the self-cleavage is 0.01.

As for C8G U20C U32A, the self-cleavage worked out at 0.1.

Take C8G U20C U32C: the self-cleavage came out at 0.03.

In the case of C8U A25U G27A G40U, the self-cleavage was determined as 0.34.

For the variant C8U C10G G17A U20C G21U G29U U43A, the self-cleavage is 0.01.

Regarding C8U C10A A16C C23G G36A G40U U43A, the self-cleavage stood at 0.01.

As for C8U C10A G30U C45G, the self-cleavage is 0.02.

Consider C8G U9A G19C G29A A39G U43A, for which the self-cleavage was determined as 0.09.

In the case of C8G C13A G19A, the self-cleavage turned out to be 0.03.

Turning to C8U C10A G27A, the self-cleavage turned out to be 0.03.

On to C8U A11C A14C G17U, for which the self-cleavage was 0.03.

In the case of C8G U34G C37G A39C, the self-cleavage was 0.

Consider C8U A11U A16U G17C A24C, for which the self-cleavage amounted to 0.02.

With C8G G19A C37U, the self-cleavage stood at 0.05.

As to C8G U32A C46A, the self-cleavage is 0.06.

In the case of C8G C13U C15A C23U G33U, the self-cleavage was 0.03.

For the variant C8U C10A G19U U20A, the self-cleavage was determined as 0.03.

Consider C8G C13A U28G G36A C42G, for which the self-cleavage was 0.02.

Consider C8G C13A U32G G40U, for which the self-cleavage is 0.19.

With C8U A11G A24G A26G, the self-cleavage stood at 0.01.

Consider C8G U9A U28C U34A, for which the self-cleavage amounted to 0.1.

Take C8U C10U C18A C23A G29U A41C: the self-cleavage was determined as 0.03.

Turning to C8G G22U A24C, the self-cleavage is 0.07.

Regarding C8G C23G C46U, the self-cleavage was 0.04.

In the case of C8G G17U G44U, the self-cleavage worked out at 0.02.

For the variant C8G G17C A26U G36U, the self-cleavage is 0.05.

Consider C8G U34C G44C, for which the self-cleavage stood at 0.01.

As to C8G G27U G29U C42A C45G, the self-cleavage came to 0.26.

With C8G G17C G29U C31G G40A, the self-cleavage was 0.02.

Take C8G C13U C23A C31G A41U: the self-cleavage came to 0.01.

With C8G G17C A25U, the self-cleavage was 0.

In the case of C8U A39C C42U, the self-cleavage is 0.15.

Regarding C8G G22A G30U G40U, the self-cleavage amounted to 0.02.

Consider C8U A11G U20G G27U G44C, for which the self-cleavage worked out at 0.02.

As for C8G C18U G30U, the self-cleavage was 0.12.

For C8G C18A U20G A25G A26U G30A C46U, the self-cleavage came to 0.09.

In the case of C8U A24C U28A, the self-cleavage was determined as 0.09.

C8U A12G A14U G30A G35U: the self-cleavage is 0.02.

C8G G27C C37U: the self-cleavage stood at 0.01.

As for C8U C10A G33U, the self-cleavage was 0.08.
